# From article PMC4336329 (PLoS ONE, 2015)
# In all, about 310,000 compounds went through this assay and about 14,000 (4.5%) showed an effect of 50% or more. Effects have a minus sign here. Some of the results follow.
# Molecular target: human ether-à-go-go-related gene (hERG) potassium channel (human, UniProt Q12809)
# Assay: primary screen, population patch clamp on CHO cells stably expressing hERG
# 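Note: peak tail current of the secondary pulse compared with the same well before compound.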
# human ether-à-go-go-related gene (hERG) potassium channel, sequence (Q12809 whole entry, looked up): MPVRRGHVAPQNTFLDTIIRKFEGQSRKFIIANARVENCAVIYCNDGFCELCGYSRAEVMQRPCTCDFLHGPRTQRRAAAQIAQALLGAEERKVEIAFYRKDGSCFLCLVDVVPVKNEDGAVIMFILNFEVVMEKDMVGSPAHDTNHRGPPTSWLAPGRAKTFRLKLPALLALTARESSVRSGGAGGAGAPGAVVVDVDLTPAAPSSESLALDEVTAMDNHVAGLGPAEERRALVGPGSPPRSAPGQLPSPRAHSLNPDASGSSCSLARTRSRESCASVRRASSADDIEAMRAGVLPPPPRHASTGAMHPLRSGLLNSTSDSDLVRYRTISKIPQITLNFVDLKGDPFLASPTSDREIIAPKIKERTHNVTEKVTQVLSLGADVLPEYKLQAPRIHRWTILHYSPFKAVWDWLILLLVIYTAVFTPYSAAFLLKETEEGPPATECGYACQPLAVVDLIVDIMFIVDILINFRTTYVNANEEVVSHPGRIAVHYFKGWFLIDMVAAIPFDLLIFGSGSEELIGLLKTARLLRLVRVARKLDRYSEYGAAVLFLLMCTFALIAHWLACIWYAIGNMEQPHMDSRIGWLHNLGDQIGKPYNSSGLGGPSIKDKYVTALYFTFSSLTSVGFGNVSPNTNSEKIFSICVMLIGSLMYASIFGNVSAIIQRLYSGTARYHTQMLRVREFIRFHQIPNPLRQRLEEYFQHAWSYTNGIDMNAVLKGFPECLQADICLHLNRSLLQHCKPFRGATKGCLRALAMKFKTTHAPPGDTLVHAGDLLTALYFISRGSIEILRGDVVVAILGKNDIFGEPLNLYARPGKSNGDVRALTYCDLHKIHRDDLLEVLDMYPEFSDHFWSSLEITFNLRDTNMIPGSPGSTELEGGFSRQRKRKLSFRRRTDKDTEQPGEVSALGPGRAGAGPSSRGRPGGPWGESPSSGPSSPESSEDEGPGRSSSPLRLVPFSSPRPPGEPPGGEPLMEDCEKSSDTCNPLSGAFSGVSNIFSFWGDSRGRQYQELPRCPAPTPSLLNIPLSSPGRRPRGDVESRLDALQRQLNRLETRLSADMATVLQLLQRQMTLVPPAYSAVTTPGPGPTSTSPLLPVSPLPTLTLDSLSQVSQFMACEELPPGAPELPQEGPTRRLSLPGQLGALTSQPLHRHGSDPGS
row,SMILES,"hERG current change (%, negative = inhibition) at 10uM"
1,COc1cccc(C(=O)NCCS(=O)(=O)NCc2ccc(Cl)cc2)c1,-36.5%
2,COc1cc(/C=C(\C#N)C(=O)NCCc2ccccc2)cc(OC)c1O,2.82%
3,COc1ccc(S(=O)(=O)Nc2ccccc2C(=O)NCc2ccco2)cc1,-16.1%
4,CCc1nnc(NC(=O)C2CCCN2C(=O)Nc2ccc(Cl)cc2)s1 (centres unmarked),1.86%
5,Cc1nnc(NC(=O)Nc2ccc(Cl)c(Cl)c2)s1,23.8%
6,O=C(Nc1ccccc1)N1CCN(c2nc3ccccc3s2)CC1,-49.4%
7,S=C(NCCCc1ccccc1)Nc1ccc(Br)cc1,17.9%
8,O=C(Nc1ccc2c(c1)N(S(=O)(=O)c1cccs1)CCC2)c1c(F)cccc1Cl,4.79%
9,COc1ccc(N2C(=O)CC(Sc3nnnn3-c3ccc(F)cc3)C2=O)cc1 (centres unmarked),8.85%
10,COc1ccc(NC(=O)C2CCC(CNc3c(N4CCC(C)CC4)c(=O)c3=O)CC2)cc1OC (centres unmarked),24.1%
11,Cc1c(C(=O)N/N=C/c2cccs2)nc2ccccn12,9.94%
12,CCOc1cc(C)c(Cl)cc1S(=O)(=O)NCc1ccc2c(c1)OCO2,-13.9%
13,CCCNc1sc(S(=O)(=O)CCC)nc1S(=O)(=O)c1ccc(C)cc1,-42.8%
14,CCOc1ccc(CNS(=O)(=O)c2cc(-c3cc(C)no3)ccc2OC)cc1OC,-5.07%
15,Clc1ccc2nc(C3CCN(Cc4nnnn4C4CCCCC4)CC3)[nH]c2c1,-59.2%
16,COc1cc(NC(=O)c2ccc(F)cc2)ccc1NC(=O)c1cc2ccccc2o1,17.9%
17,O=C(N/N=C/c1cccs1)c1cc(-c2cccc3ccccc23)n[nH]1,2.99%
18,Cc1nn(-c2ccccc2)nc1CNS(C)(=O)=O,-1.64%
19,Cc1nc(SCC(=O)NCc2ccccc2)c2oc3ccccc3c2n1,-12.4%
20,COc1ccc2c(=O)c(N3C(=O)c4ccccc4C3=O)coc2c1,-0.536%
21,O=C(c1ccccc1)C(Nc1ccccn1)c1ccccc1 (centres unmarked),1.36%
22,CCCCOc1ccc(NC(=O)C2CC=CCC2C(=O)O)cc1 (centres unmarked),13.6%

row,SMILES,"hERG current change (%, negative = inhibition) at 10uM"
1,O=C(O)CC(c1cccc([N+](=O)[O-])c1)N1Cc2ccccc2C1=O (centres unmarked),9.14%
2,CC(C)CC(=O)Nc1ccc(-c2nnn(CC(=O)NCc3ccco3)n2)cc1,9.87%
3,O=C(COc1ccc2c(-c3ccccc3)cc(=O)oc2c1)NCCCN1CCOCC1,-8.67%
4,S=C(NC1CCCCC1)NN(c1ccccc1)c1ccccc1,-2.47%
5,CCCCN(CC)CCNC(=O)CCNC(=O)Cn1ccc2ccccc2c1=O,9.02%
6,COc1ccc(OC)c(S(=O)(=O)Nc2cccc3c(O)cccc23)c1,-2.03%
7,CCOC(=O)C1=C(C)N=c2s/c(=C\c3ccc(OC(C)=O)cc3)c(=O)n2C1/C=C/c1ccccc1 (centres unmarked),6.85%
8,CCOC(=O)c1c(NC(C)=O)sc2c(OC)c(Br)ccc12,2.16%
9,O=C(Cc1cccs1)N1CCCC(c2nc(-c3ccc(S(=O)(=O)N4CCCC4)cc3)no2)C1 (centres unmarked),-13.3%
10,O=C1OCCC1Sc1nnc(-c2cccs2)n1Cc1ccccc1 (centres unmarked),-29.5%
11,CCCNC(=O)c1cc(-c2ccc(OC)cc2)n(CCCOC)c1C,10.1%
12,CCCCc1nnc(NC(=O)CCS(=O)(=O)c2ccc(Cl)cc2)s1,-28.7%
13,Cc1ccc(SC(c2ccccc2)C(Cn2cncn2)C(=O)c2ccccc2)cc1 (centres unmarked),18.9%
14,Cc1c(Cl)cnc(NC(=O)CSc2nnc(C)n2Cc2ccccc2)c1Cl,-24.1%
15,Fc1ccc(-c2csc3ncnc(N4CCN(Cc5ccccc5)CC4)c23)cc1,-2.14%
16,CC(=O)Nc1ccc(NC(=O)c2cccc3ccccc23)cc1,6.36%
17,c1ccc(N2CCN(Cc3ccc4c(c3)OCO4)CC2)nc1,-8.79%
18,O=C(CSc1nnc(CNC(=O)c2ccccc2F)o1)Nc1ccc2c(c1)OCCO2,12.3%
19,CCC(NC(=S)NCc1ccc(F)cc1)c1ccccc1 (centres unmarked),-1.64%
20,Cc1ccc(NC(=O)CCNS(=O)(=O)c2ccccc2F)cc1S(=O)(=O)N1CCOCC1,-10.6%
21,COc1cc(/C=C2\C(=N)N3N=C(S(C)(=O)=O)SC3=NC2=O)ccc1OC(=O)c1cccs1,0.921%
22,Cc1ccccc1-c1nc(CS(=O)CC(=O)NC2CCCC2)c(C)o1 (centres unmarked),8.89%
